{"source": "the supplement of paper PMC8728848", "binders": {"B1": {"name": "ECL (Erythrina cristagalli), Q6YD91 (protein)", "chain": "VETISFSFSEFEPGNNDLTLQGAAIITQSGVLQLTKINQNGMPAWDSTGRTLYTKPVHIWDMTTGTVASFETRFSFSIEQPYTRPLPADGLVFFMGPTKSKPAQGYGYLGVFNNSKQDNSYQTLAVEFDTFSNPWDPPQVPHIGIDVNSIRSIKTQPFQLDNGQVANVVIKYDASSKILLAVLVYPSSGAIYTIAEIVDVKQVLPEWVDVGLSGATGAQRDAAETHDVYSWSFHASLPETND"}}, "assay_in_all_cases": "glycan array binding signal (z-score within array); higher = stronger binding", "conditions_in_all_cases": "glycan notation: IUPAC condensed, linker removed", "key": {"Neu5Ac(a2-3)GalNAc": {"target": "Neu5Ac(a2-3)GalNAc", "summary_of_the_method": "(§1)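 Columns mapping to the same glycan were averaged after glycan names were converted to IUPAC-condensed notation. The data come from 3228 arrays in the Consortium for Functional Glycomics database, limited to those with an available protein sequence. Binding is reported as a within-array Z-score averaged across arrays of one protein sequence and across linkers.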"}, "[1]": {"target": "Neu5Ac(a2-3)GalNAc(b1-4)GlcNAc", "summary_of_the_method": "as §1"}, "[2]": {"target": "Neu5Ac(a2-3)[GalNAc(b1-4)]Gal(b1-4)Glc", "summary_of_the_method": "as §1"}, "[3]": {"target": "Neu5Ac(a2-3)[GalNAc(b1-4)]Gal(b1-4)GlcNAc", "summary_of_the_method": "as §1"}, "[4]": {"target": "Neu5Ac(a2-3)[GalNAc(b1-4)]Gal(b1-4)GlcNAc(b1-3)GalNAc", "summary_of_the_method": "as §1"}, "[5]": {"target": "Neu5Ac(a2-3)[Neu5Ac(a2-6)]GalNAc", "summary_of_the_method": "as §1"}, "Neu5Ac(a2-6)Gal": {"target": "Neu5Ac(a2-6)Gal", "summary_of_the_method": "as §1"}, "[6]": {"target": "Neu5Ac(a2-6)Gal(b1-3)GlcNAc(b1-3)[Gal(b1-4)GlcNAc(b1-6)]Gal(b1-4)Glc", "summary_of_the_method": "as §1"}, "Neu5Ac(a2-6)Gal(b1-4)Glc": {"target": "Neu5Ac(a2-6)Gal(b1-4)Glc", "summary_of_the_method": "as §1"}, "[7]": {"target": "Neu5Ac(a2-6)Gal(b1-4)GlcNAc", "summary_of_the_method": "as §1"}, "[8]": {"target": "Neu5Ac(a2-6)Gal(b1-4)GlcNAc(b1-2)Man", "summary_of_the_method": "as §1"}, "[9]": {"target": "Neu5Ac(a2-6)Gal(b1-4)GlcNAc(b1-2)Man(a1-3)Man(b1-4)GlcNAc(b1-4)GlcNAc", "summary_of_the_method": "as §1"}, "[10]": {"target": "Neu5Ac(a2-6)Gal(b1-4)GlcNAc(b1-2)Man(a1-3)[Gal(b1-4)GlcNAc(b1-2)Man(a1-6)]Man(b1-4)GlcNAc(b1-4)GlcNAc", "summary_of_the_method": "as §1"}, "[11]": {"target": "Neu5Ac(a2-6)Gal(b1-4)GlcNAc(b1-2)Man(a1-3)[GlcNAc(b1-2)Man(a1-6)]Man(b1-4)GlcNAc(b1-4)GlcNAc", "summary_of_the_method": "as §1"}, "[12]": {"target": "Neu5Ac(a2-6)Gal(b1-4)GlcNAc(b1-2)Man(a1-3)[GlcNAc(b1-4)][Neu5Ac(a2-6)Gal(b1-4)GlcNAc(b1-2)Man(a1-6)]Man(b1-4)GlcNAc(b1-4)GlcNAc", "summary_of_the_method": "as §1"}, "[13]": {"target": "Neu5Ac(a2-6)Gal(b1-4)GlcNAc(b1-2)Man(a1-3)[Man(a1-6)]Man(b1-4)GlcNAc(b1-4)GlcNAc", "summary_of_the_method": "as §1"}, "[14]": {"target": "Neu5Ac(a2-6)Gal(b1-4)GlcNAc(b1-2)Man(a1-3)[Neu5Ac(a2-3)Gal(b1-4)GlcNAc(b1-2)Man(a1-6)]Man(b1-4)GlcNAc(b1-4)GlcNAc", "summary_of_the_method": "as §1"}, "[15]": {"target": "Neu5Ac(a2-6)Gal(b1-4)GlcNAc(b1-2)Man(a1-3)[Neu5Ac(a2-6)Gal(b1-4)GlcNAc(b1-2)Man(a1-6)]Man(b1-4)GlcNAc(b1-4)GlcNAc", "summary_of_the_method": "as §1"}, "[16]": {"target": "Neu5Ac(a2-6)Gal(b1-4)GlcNAc(b1-2)Man(a1-3)[Neu5Ac(a2-6)Gal(b1-4)GlcNAc(b1-2)Man(a1-6)]Man(b1-4)GlcNAc(b1-4)[Fuc(a1-6)]GlcNAc", "summary_of_the_method": "as §1"}, "[17]": {"target": "Neu5Ac(a2-6)Gal(b1-4)GlcNAc(b1-2)Man(a1-6)Man(b1-4)GlcNAc(b1-4)GlcNAc", "summary_of_the_method": "as §1"}, "[18]": {"target": "Neu5Ac(a2-6)Gal(b1-4)GlcNAc(b1-2)Man(a1-6)[Gal(b1-4)GlcNAc(b1-2)Man(a1-3)]Man(b1-4)GlcNAc(b1-4)GlcNAc", "summary_of_the_method": "as §1"}, "[19]": {"target": "Neu5Ac(a2-6)Gal(b1-4)GlcNAc(b1-2)Man(a1-6)[GlcNAc(b1-2)Man(a1-3)]Man(b1-4)GlcNAc(b1-4)GlcNAc", "summary_of_the_method": "as §1"}, "[20]": {"target": "Neu5Ac(a2-6)Gal(b1-4)GlcNAc(b1-2)Man(a1-6)[Man(a1-3)]Man(b1-4)GlcNAc(b1-4)GlcNAc", "summary_of_the_method": "as §1"}, "[21]": {"target": "Neu5Ac(a2-6)Gal(b1-4)GlcNAc(b1-2)[Neu5Ac(a2-6)Gal(b1-4)GlcNAc(b1-4)]Man(a1-3)[GlcNAc(b1-4)][Neu5Ac(a2-6)Gal(b1-4)GlcNAc(b1-2)[Neu5Ac(a2-6)Gal(b1-4)GlcNAc(b1-6)]Man(a1-6)]Man(b1-4)GlcNAc(b1-4)GlcNAc", "summary_of_the_method": "as §1"}, "[22]": {"target": "Neu5Ac(a2-6)Gal(b1-4)GlcNAc(b1-2)[Neu5Ac(a2-6)Gal(b1-4)GlcNAc(b1-4)]Man(a1-3)[GlcNAc(b1-4)][Neu5Ac(a2-6)Gal(b1-4)GlcNAc(b1-4)Man(a1-6)]Man(b1-4)GlcNAc(b1-4)GlcNAc", "summary_of_the_method": "as §1"}, "[23]": {"target": "Neu5Ac(a2-6)Gal(b1-4)GlcNAc(b1-2)[Neu5Ac(a2-6)Gal(b1-4)GlcNAc(b1-6)]Man(a1-6)[Neu5Ac(a2-6)Gal(b1-4)GlcNAc(b1-2)Man(a1-3)][GlcNAc(b1-4)]Man(b1-4)GlcNAc(b1-4)GlcNAc", "summary_of_the_method": "as §1"}, "[24]": {"target": "Neu5Ac(a2-6)Gal(b1-4)GlcNAc(b1-3)Gal(b1-3)GlcNAc", "summary_of_the_method": "as §1"}, "[25]": {"target": "Neu5Ac(a2-6)Gal(b1-4)GlcNAc(b1-3)Gal(b1-4)GlcNAc", "summary_of_the_method": "as §1"}, "[26]": {"target": "Neu5Ac(a2-6)Gal(b1-4)GlcNAc(b1-3)Gal(b1-4)GlcNAc(b1-2)Man(a1-3)[Neu5Ac(a2-6)Gal(b1-4)GlcNAc(b1-3)Gal(b1-4)GlcNAc(b1-2)Man(a1-6)]GalNAc", "summary_of_the_method": "as §1"}, "[27]": {"target": "Neu5Ac(a2-6)Gal(b1-4)GlcNAc(b1-3)Gal(b1-4)GlcNAc(b1-3)Gal(b1-4)GlcNAc", "summary_of_the_method": "as §1"}, "[28]": {"target": "Neu5Ac(a2-6)Gal(b1-4)GlcNAc(b1-3)Gal(b1-4)GlcNAc(b1-3)Gal(b1-4)GlcNAc(b1-2)Man(a1-3)[Neu5Ac(a2-6)Gal(b1-4)GlcNAc(b1-3)Gal(b1-4)GlcNAc(b1-3)Gal(b1-4)GlcNAc(b1-2)Man(a1-6)]GalNAc", "summary_of_the_method": "as §1"}, "[29]": {"target": "Neu5Ac(a2-6)Gal(b1-4)GlcNAc(b1-3)Gal(b1-4)GlcNAc(b1-3)GalNAc", "summary_of_the_method": "as §1"}, "[30]": {"target": "Neu5Ac(a2-6)Gal(b1-4)GlcNAc(b1-3)Gal(b1-4)GlcNAc(b1-3)[Neu5Ac(a2-6)Gal(b1-4)GlcNAc(b1-3)Gal(b1-4)GlcNAc(b1-6)]GalNAc", "summary_of_the_method": "as §1"}, "[31]": {"target": "Neu5Ac(a2-6)Gal(b1-4)GlcNAc(b1-3)Gal(b1-4)GlcNAc(b1-6)[Gal(b1-3)]GalNAc", "summary_of_the_method": "as §1"}, "[32]": {"target": "Neu5Ac(a2-6)Gal(b1-4)GlcNAc(b1-3)Gal(b1-4)[Fuc(a1-3)]GlcNAc(b1-3)Gal(b1-4)[Fuc(a1-3)]GlcNAc", "summary_of_the_method": "as §1"}, "[33]": {"target": "Neu5Ac(a2-6)Gal(b1-4)GlcNAc(b1-3)GalNAc", "summary_of_the_method": "as §1"}, "[34]": {"target": "Neu5Ac(a2-6)Gal(b1-4)GlcNAc(b1-3)[Neu5Ac(a2-6)Gal(b1-4)GlcNAc(b1-6)]GalNAc", "summary_of_the_method": "as §1"}}, "note": "The other results are listed elsewhere or left out."}
{"binder": "B1", "values": [{"measurement": "glycan array binding signal (z-score)", "setting": "Neu5Ac(a2-3)GalNAc", "result": -0.491}, {"measurement": "glycan array binding signal (z-score)", "setting": "[1]", "result": -0.413}, {"measurement": "glycan array binding signal (z-score)", "setting": "[2]", "result": -0.505}, {"measurement": "glycan array binding signal (z-score)", "setting": "[3]", "result": -0.393}, {"measurement": "glycan array binding signal (z-score)", "setting": "[4]", "result": 0.548}, {"measurement": "glycan array binding signal (z-score)", "setting": "[5]", "result": -0.483}, {"measurement": "glycan array binding signal (z-score)", "setting": "Neu5Ac(a2-6)Gal", "result": -0.186}, {"measurement": "glycan array binding signal (z-score)", "setting": "[6]", "result": -0.064}, {"measurement": "glycan array binding signal (z-score)", "setting": "Neu5Ac(a2-6)Gal(b1-4)Glc", "result": -0.284}, {"measurement": "glycan array binding signal (z-score)", "setting": "[7]", "result": -0.23}, {"measurement": "glycan array binding signal (z-score)", "setting": "[8]", "result": -0.253}, {"measurement": "glycan array binding signal (z-score)", "setting": "[9]", "result": -0.235}, {"measurement": "glycan array binding signal (z-score)", "setting": "[10]", "result": -0.266}, {"measurement": "glycan array binding signal (z-score)", "setting": "[11]", "result": -0.345}, {"measurement": "glycan array binding signal (z-score)", "setting": "[12]", "result": -0.531}, {"measurement": "glycan array binding signal (z-score)", "setting": "[13]", "result": -0.234}, {"measurement": "glycan array binding signal (z-score)", "setting": "[14]", "result": -0.246}, {"measurement": "glycan array binding signal (z-score)", "setting": "[15]", "result": -0.244}, {"measurement": "glycan array binding signal (z-score)", "setting": "[16]", "result": -0.225}, {"measurement": "glycan array binding signal (z-score)", "setting": "[17]", "result": -0.364}, {"measurement": "glycan array binding signal (z-score)", "setting": "[18]", "result": -0.087}, {"measurement": "glycan array binding signal (z-score)", "setting": "[19]", "result": -0.29}, {"measurement": "glycan array binding signal (z-score)", "setting": "[20]", "result": -0.436}, {"measurement": "glycan array binding signal (z-score)", "setting": "[21]", "result": -0.325}, {"measurement": "glycan array binding signal (z-score)", "setting": "[22]", "result": -0.195}, {"measurement": "glycan array binding signal (z-score)", "setting": "[23]", "result": -0.477}, {"measurement": "glycan array binding signal (z-score)", "setting": "[24]", "result": -0.312}, {"measurement": "glycan array binding signal (z-score)", "setting": "[25]", "result": -0.267}, {"measurement": "glycan array binding signal (z-score)", "setting": "[26]", "result": 0.195}, {"measurement": "glycan array binding signal (z-score)", "setting": "[27]", "result": -0.344}, {"measurement": "glycan array binding signal (z-score)", "setting": "[28]", "result": 0.334}, {"measurement": "glycan array binding signal (z-score)", "setting": "[29]", "result": -0.177}, {"measurement": "glycan array binding signal (z-score)", "setting": "[30]", "result": 1.51}, {"measurement": "glycan array binding signal (z-score)", "setting": "[31]", "result": 0.138}, {"measurement": "glycan array binding signal (z-score)", "setting": "[32]", "result": -0.189}, {"measurement": "glycan array binding signal (z-score)", "setting": "[33]", "result": -0.194}, {"measurement": "glycan array binding signal (z-score)", "setting": "[34]", "result": -0.136}]}
